{"source": "paper PMC6602471", "note": "The other results are listed elsewhere or left out. At the low end of the ranking, values are background and their order means little."}
{"biological_target": "T1, ETS1 (UniProt P14921)", "T1 sequence": "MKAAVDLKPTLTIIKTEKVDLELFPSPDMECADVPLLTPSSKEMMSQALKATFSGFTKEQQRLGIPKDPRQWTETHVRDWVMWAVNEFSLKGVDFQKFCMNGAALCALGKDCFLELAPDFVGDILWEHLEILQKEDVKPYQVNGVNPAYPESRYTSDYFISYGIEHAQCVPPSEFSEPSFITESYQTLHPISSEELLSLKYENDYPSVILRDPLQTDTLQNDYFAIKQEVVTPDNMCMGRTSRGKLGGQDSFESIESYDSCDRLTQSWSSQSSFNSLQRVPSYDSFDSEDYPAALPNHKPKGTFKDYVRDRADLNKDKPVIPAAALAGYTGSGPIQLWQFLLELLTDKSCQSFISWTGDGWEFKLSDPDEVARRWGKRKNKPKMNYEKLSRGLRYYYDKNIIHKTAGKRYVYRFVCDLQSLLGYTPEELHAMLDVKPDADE", "assay": "custom PBM", "conditions": "custom protein-binding microarray; buffer, salt, pH and temperature not stated; high values mean tight binding; double strand, one strand shown"}
{"sequence": "TCCGGCTACCAGCTCCACCCACTTCAGGCATTGTAGGTCTTGATTCGCTTGACGCTGCTG", "binding signal (log fluorescence intensity)": 8.34}
{"sequence": "TAAAGGGAAGACGGTTGTGGAAGTTCCGGGTATTAAGTCTTGATTCGCTTGACGCTGCTG", "binding signal (log fluorescence intensity)": 8.76}
{"sequence": "TGTCGGGTAGGGGAATGTAGATCACGTGAATGAAAAGTCTTGATTCGCTTGACGCTGCTG", "binding signal (log fluorescence intensity)": 8.11}
{"sequence": "GCTGCTGGGGTGCATACCCCACCGGATGTGACCCCGGTCTTGATTCGCTTGACGCTGCTG", "binding signal (log fluorescence intensity)": 10.3}
{"sequence": "TACTCACTTATATATGCGAATGCACATGAATAGACCGTCTTGATTCGCTTGACGCTGCTG", "binding signal (log fluorescence intensity)": 8.35}
{"sequence": "CAGCATAGGACTTCTTCCCTGAGGCAATTGATAACCGTCTTGATTCGCTTGACGCTGCTG", "binding signal (log fluorescence intensity)": 8.02}
{"sequence": "GTGTATAGGATCCCATCCAACATACGTGTTAAAATGGTCTTGATTCGCTTGACGCTGCTG", "binding signal (log fluorescence intensity)": 8.21}
{"sequence": "TACTGACTTATATAAGCGAATGCACATGAATAGACCGTCTTGATTCGCTTGACGCTGCTG", "binding signal (log fluorescence intensity)": 8.41}
{"sequence": "GGAAAAAGGCCCAGGGTAACACCGGAAGTGGGCCTAGTCTTGATTCGCTTGACGCTGCTG", "binding signal (log fluorescence intensity)": 12.1}
{"sequence": "CGGAAGTGTCGTAAACGTCGGATATCAGGTTCTTCTGTCTTGATTCGCTTGACGCTGCTG", "binding signal (log fluorescence intensity)": 8.51}
{"sequence": "TACTGACTTATATATGCGAATGCACATGCATAGACCGTCTTGATTCGCTTGACGCTGCTG", "binding signal (log fluorescence intensity)": 8.06}
{"sequence": "TGTCGGGTAAGGGAATGTAGATCAAGTGAATGAAAAGTCTTGATTCGCTTGACGCTGCTG", "binding signal (log fluorescence intensity)": 8.26}
{"sequence": "TTCTGACTTATATATGCGAATGCACATGAATAGACCGTCTTGATTCGCTTGACGCTGCTG", "binding signal (log fluorescence intensity)": 8.11}
{"sequence": "TAAAGGGAAGACGGTTGTGGTAGTTCCAGGTATTAAGTCTTGATTCGCTTGACGCTGCTG", "binding signal (log fluorescence intensity)": 8.13}
{"sequence": "GCTGCTGCGGTGCATACCCCACCGGATATGACCCCGGTCTTGATTCGCTTGACGCTGCTG", "binding signal (log fluorescence intensity)": 9.71}
{"sequence": "TACAGACTTATATATGCGAATGCACATGAATAGACCGTCTTGATTCGCTTGACGCTGCTG", "binding signal (log fluorescence intensity)": 8.43}
{"sequence": "TACTGACTTATATATGCGAATGCACATGTATAGACCGTCTTGATTCGCTTGACGCTGCTG", "binding signal (log fluorescence intensity)": 8.25}
{"sequence": "GATTAATTTCTGCCGTTATTCGCACGTGCCATAACAGTCTTGATTCGCTTGACGCTGCTG", "binding signal (log fluorescence intensity)": 8.2}
{"sequence": "GCTGCTGCTGTGCATACCCCACCGGATGTGACCCCGGTCTTGATTCGCTTGACGCTGCTG", "binding signal (log fluorescence intensity)": 9.42}
{"sequence": "TCCGGGTACCAGCTCCACCCACTTCAGGCCTTGTAGGTCTTGATTCGCTTGACGCTGCTG", "binding signal (log fluorescence intensity)": 8.28}
{"sequence": "TAAAGGGAAGACGGTTGTGGTAGTTGCGGGTATTAAGTCTTGATTCGCTTGACGCTGCTG", "binding signal (log fluorescence intensity)": 8.38}
{"sequence": "GTGTATAGGATCCCATCCAACACATGTGTTAAAATGGTCTTGATTCGCTTGACGCTGCTG", "binding signal (log fluorescence intensity)": 8.29}
{"sequence": "GTGTATAGGATCCCATCCAACACACGTGTTCAAATGGTCTTGATTCGCTTGACGCTGCTG", "binding signal (log fluorescence intensity)": 8.26}
{"sequence": "GCTGCTGCGGTGCATACCCCACCGGATGTGACCCAGGTCTTGATTCGCTTGACGCTGCTG", "binding signal (log fluorescence intensity)": 10.3}
{"sequence": "GACTGACTTATATATGCGAATGCACATGAATAGACCGTCTTGATTCGCTTGACGCTGCTG", "binding signal (log fluorescence intensity)": 8.26}
{"sequence": "TACTGACTTATATATGCGAATGCACATTAATAGACCGTCTTGATTCGCTTGACGCTGCTG", "binding signal (log fluorescence intensity)": 8.25}
{"sequence": "TACTGACTTATATATGCGAATGCACATGAATAGAACGTCTTGATTCGCTTGACGCTGCTG", "binding signal (log fluorescence intensity)": 8.15}
{"sequence": "TACTGACTTATATATGCGAATGCACATGAATAGACAGTCTTGATTCGCTTGACGCTGCTG", "binding signal (log fluorescence intensity)": 8.29}
{"sequence": "CATTAATTTCTGCCCTTATTCGCACGTGCCATAACAGTCTTGATTCGCTTGACGCTGCTG", "binding signal (log fluorescence intensity)": 8.25}
{"sequence": "GCTGATGCGGTGCATACCCCACCGGATGTGACCCCGGTCTTGATTCGCTTGACGCTGCTG", "binding signal (log fluorescence intensity)": 10.2}
{"sequence": "CGGAATTGTCGTAAACGTCGGATATCCGGTTCTTCTGTCTTGATTCGCTTGACGCTGCTG", "binding signal (log fluorescence intensity)": 12.2}
{"sequence": "TGTCGGGTAAGGGAAAGTAGATCACGTGAATGAAAAGTCTTGATTCGCTTGACGCTGCTG", "binding signal (log fluorescence intensity)": 8.16}
{"sequence": "CGGAAGTGTCGTAAACGTCGTATATCCGGTTCTTCTGTCTTGATTCGCTTGACGCTGCTG", "binding signal (log fluorescence intensity)": 11.8}
{"sequence": "GATTAATTTCTGGCCTTATTCGCACGTGCCATAACAGTCTTGATTCGCTTGACGCTGCTG", "binding signal (log fluorescence intensity)": 8.09}
{"sequence": "GATTAATTTCTGCCCTTATTCGCACGTGCCCTAACAGTCTTGATTCGCTTGACGCTGCTG", "binding signal (log fluorescence intensity)": 8.12}
{"sequence": "GTGTATAGGGTCCCATCCAACACACGTGTTAAAATGGTCTTGATTCGCTTGACGCTGCTG", "binding signal (log fluorescence intensity)": 8.3}
{"sequence": "TACTGACTTATATATGCGAATGCACATGATTAGACCGTCTTGATTCGCTTGACGCTGCTG", "binding signal (log fluorescence intensity)": 8.14}
{"sequence": "TAAAGGGAAGACGGTTGTGGTAGTTCCGTGTATTAAGTCTTGATTCGCTTGACGCTGCTG", "binding signal (log fluorescence intensity)": 8.27}
{"sequence": "GCTACTGCGGTGCATACCCCACCGGATGTGACCCCGGTCTTGATTCGCTTGACGCTGCTG", "binding signal (log fluorescence intensity)": 10.1}
{"sequence": "GCTGCTGCGGTGCATACCCCACGGGATGTGACCCCGGTCTTGATTCGCTTGACGCTGCTG", "binding signal (log fluorescence intensity)": 8.14}
